SMILES strings stand for the structures. The campaign covered roughly 150,000 compounds. About 540 (0.36%) showed an effect of 50% or more. The list shows a part of the results.

In this assay the test system is Plasmodium falciparum. The assay is described as follows: Primary screen in NF54 nanoGlo assay, in single point, at 2uM, 72h; a lower Z score goes with more inhibition. It counts as functional, Erythrocyte. The settings on record: timepoint 72 hour.
For `O=C(Cc1cccc(F)c1)OCc1nc(-c2ccccc2)no1`, the “% Inhibition” value is listed as 5% and the Z score is recorded as -0.58.

Consider `Cc1nnc(NC(=O)N2CCC(CCc3ccc(F)cc3F)CC2)s1`, for which the “% Inhibition” value came out at 1% and the Z score was -0.17.

For the compound `CCS(=O)(=O)N1CCc2nc(N3CCN(C)CC3)nc(Oc3ccc(F)cc3F)c2C1`, the “% Inhibition” value is given as -13% and the Z score was 2.12.

Turning to `Cc1nc(C)c(C(C)NC(=O)NC2CCCC(C)C2)s1` (stereo not given), the “% Inhibition” value is -4% and the Z score is 0.59.

In the case of `CCOc1ccc(CN2CC[C@H](NC(=O)NCCOC)C2)cn1`, the “% Inhibition” value is on record as -5% and the Z score stood at 0.69.

Take `N#Cc1cccc(NC(=O)N2CCN(c3ncc[nH]3)CC2)c1`: the “% Inhibition” value was -14% and the Z score is 1.6.

On to `O=C(COC[C@H]1CCCO1)Nc1ccc2[nH]c(=O)sc2c1`, for which the “% Inhibition” value worked out at 42% and the Z score is listed as -5.46.

`CCN1CCN(C(=O)CCc2c(OC)nc3c(c(C)nn3-c3ccc(C)cc3)c2C)CC1`: the “% Inhibition” value was 1% and the Z score is listed as -0.21.

On to `CCCc1cnc(NC(=O)NCC2CCCC(O)C2)s1` (stereo not given), for which the “% Inhibition” value was -8% and the Z score is reported as 1.03.

`CS(=O)(=O)c1cn(Cc2ccccc2)c(C#N)c1N`: the “% Inhibition” value was found to be 7% and the Z score is -1.01.

With `O=C(NCc1ccco1)c1ccccc1NC(=O)c1cccc2ccccc12`, the “% Inhibition” value was -10% and the Z score is reported as 1.49.

Turning to `Clc1cc(CNC2(c3noc(C4CC4)n3)CCCC2)c2c(c1)COCO2`, the “% Inhibition” value is reported as 0% and the Z score is listed as 0.08.

`Cc1nnc(COc2nc(C(C)C)no2)n1C1CC1`: the “% Inhibition” value was 8% and the Z score was -0.9.

As for `CN1CCN(C(=O)c2ccc3c(c2)CCC3)C[C@]12CCNC(=O)CC2`, the “% Inhibition” value was -14% and the Z score is 2.4.

In the case of `Cc1nc2ccnn2c(C)c1CCC(=O)N1CCOC2CCCC21` (stereo not given), the “% Inhibition” value is -1% and the Z score came to 0.2.

As to `O=C(NCc1ccc(O)cc1O)N1CC[C@@H]2CCCC[C@H]2C1`, the “% Inhibition” value is -9% and the Z score was found to be 1.57.

For `CC(C)CN1C(=O)CNC12CCN(S(=O)(=O)c1cccc(C(F)(F)F)c1)CC2`, the “% Inhibition” value is -8% and the Z score is listed as 0.89.

`Cn1ncc(Cl)c1C(=O)Nc1cccc2ccccc12`: the “% Inhibition” value came out at 2% and the Z score was -0.31.

On to `CC(C)(C)OC(=O)NCCN1C(=O)[C@@H]2CCCN2C1=O`, for which the “% Inhibition” value is reported as -8% and the Z score was 1.31.

As to `O=C(NCCNc1cc(N2CCCC2)cnn1)Nc1ccccc1`, the “% Inhibition” value is listed as -8% and the Z score worked out at 1.49.

`O=C(N[C@H]1CCC12CCOCC2)c1c[nH]c(=O)[nH]1`: the “% Inhibition” value is 0% and the Z score is reported as -0.01.

On to `CCN1CCN(c2cc(C(=O)O)c3cc(NS(=O)(=O)c4ccc(C)cc4)ccc3n2)CC1`, for which the “% Inhibition” value is recorded as -8% and the Z score came out at 1.4.

With `C#CCN(CC#C)S(=O)(=O)c1ccc(OCC(F)(F)F)nc1`, the “% Inhibition” value is given as -5% and the Z score was 0.62.

Regarding `Cn1cc(CNc2cccc(CNC(=O)OC(C)(C)C)c2)cn1`, the “% Inhibition” value is recorded as -7% and the Z score is 1.04.

With `CCCc1ncc(CNC(=O)N2CC3(CCOCC3)[C@@H]3CCC[C@@H]32)o1`, the “% Inhibition” value is recorded as -20% and the Z score came out at 3.7.

Take `CCN1CCN(C(=O)c2cc3occc3n2Cc2ccccc2Cl)CC1`: the “% Inhibition” value was -3% and the Z score came to 0.36.

On to `O=C(CCc1ccsc1)N1CCC2(CC1)[C@H](O)C[C@@H]2OCCO`, for which the “% Inhibition” value is on record as -2% and the Z score amounted to 0.46.

For the compound `CC(C)c1ccc(S(=O)(=O)N2CCC3(CC2)NCCN=C3NC2CCCCCC2)cc1`, the “% Inhibition” value is given as -11% and the Z score is 1.48.

As to `CCn1nccc1-c1cccc(-c2noc(/C=C/c3ccc(C)cc3)n2)c1`, the “% Inhibition” value was found to be 4% and the Z score is on record as -0.5.

For the compound `N[C@H]1CCN(C(=O)Cc2csc(-c3ccc(Cl)cc3Cl)n2)C1`, the “% Inhibition” value is recorded as -7% and the Z score was 1.06.

In the case of `CCOCCn1nc(C2CC2)nc1C1CC1`, the “% Inhibition” value was -6% and the Z score came out at 0.82.

For the compound `CC(C)n1ncc2c1C[C@@H](NC(=O)Nc1ccc(F)cc1)CC2`, the “% Inhibition” value is -10% and the Z score was found to be 1.07.

Take `COC(=O)C1CC(O)CN1CC#Cc1ccc(F)cc1` (stereo not given): the “% Inhibition” value was -6% and the Z score was 0.66.

On to `c1csc(-c2cnc(CN3CCCOc4ccccc43)o2)c1`, for which the “% Inhibition” value is recorded as -9% and the Z score turned out to be 1.25.

In the case of `CC(=O)N1N=C(c2cc(-c3ccc4ccccc4c3)n[nH]2)O[C@H]1c1ccccc1C(F)(F)F`, the “% Inhibition” value is given as -1% and the Z score amounted to 0.22.

Consider `Cc1cc(C)c(Cn2cc(Cl)c(=O)[nH]c2=O)c(C)c1`, for which the “% Inhibition” value came out at 33% and the Z score was -3.78.

In the case of `CCN(CC)C(=O)CN(C)CC(=O)N[C@@H](C)c1ccccc1`, the “% Inhibition” value is -19% and the Z score was 1.61.

Take `CC(C)c1nnc(CN2CCCN(c3cccc(F)c3F)CC2)n1C`: the “% Inhibition” value amounted to 16% and the Z score was -2.09.

Regarding `Cc1ccc(OCC(=O)N2CCC[C@H](c3nc4ccccc4s3)C2)c(C)c1`, the “% Inhibition” value was -18% and the Z score was 2.07.

In the case of `O=C(NC[C@H](NC(=O)Nc1cccnc1)C1CC1)Nc1cccnc1`, the “% Inhibition” value is given as -8% and the Z score was 1.14.

As to `CCCc1nc(C)c(C(=O)N[C@H]2CC[C@H](CO)CC2)o1`, the “% Inhibition” value is reported as 3% and the Z score is recorded as -0.4.

As for `CN1N=C(c2nc(COc3ccccc3)no2)CCC1=O`, the “% Inhibition” value is given as -2% and the Z score stood at 0.22.

Consider `CCC(=O)N(Cc1cccc(C)c1)c1ccc(CC(=O)NCC2CC2)cc1`, for which the “% Inhibition” value is recorded as -5% and the Z score turned out to be 0.83.

Take `O=C(c1cc(Cl)c[nH]1)N(CCc1ccccc1)Cc1ccccc1`: the “% Inhibition” value turned out to be 0% and the Z score worked out at 0.01.

Regarding `C[C@@H]1CN(C(=O)c2ccc(-c3cnccn3)cc2)C[C@H](C)O1`, the “% Inhibition” value is recorded as -12% and the Z score is 2.42.

Consider `FC(F)Cn1ccc(NCC2=CCCOC2)n1`, for which the “% Inhibition” value is given as -17% and the Z score came out at 1.86.

Consider `COc1cccc(-c2nn(Cc3ccccc3F)c(-c3cccc(OC)c3)c2Br)c1`, for which the “% Inhibition” value is listed as 28% and the Z score is recorded as -3.2.

Regarding `O=C(c1cnccn1)N1CCC(OCc2ccccn2)CC1`, the “% Inhibition” value is on record as -8% and the Z score amounted to 1.2.

On to `CC1(C)CN(S(=O)(=O)c2cncc(F)c2)[C@H]1C1CC1`, for which the “% Inhibition” value was -1% and the Z score is listed as 0.09.

As to `CCCn1nc(C(=O)N(C2CCCCC2)C2CC2)ccc1=O`, the “% Inhibition” value is recorded as -13% and the Z score came out at 2.42.

As for `COCCn1cncc1CNC(=O)c1cccc(-c2nccc(OC)n2)c1`, the “% Inhibition” value is reported as -10% and the Z score is recorded as 1.51.

Regarding `O=C([C@@H]1CNCCN1C(=O)CCn1nnc2ccccc21)N1CCCC1`, the “% Inhibition” value is -5% and the Z score was found to be 1.

As for `CC(CCCOc1ccccc1C(N)=O)NC(c1cc(F)ccc1F)C1CC1` (stereo not given), the “% Inhibition” value is on record as -13% and the Z score came to 1.48.

For the compound `CN(C(=O)C1CCN(CCOC[C@H]2CCCO2)CC1)c1ccccc1`, the “% Inhibition” value is -8% and the Z score came to 1.21.

On to `O=C(O)Cc1cccc(NS(=O)(=O)c2cccc3c2CCCC3)c1`, for which the “% Inhibition” value turned out to be 11% and the Z score is -2.38.

For orientation: % Inhibition means the drop in the measured response relative to a control, in per cent.

Source of the values: ChEMBL document CHEMBL4888484, “Replenishing the malaria drug discovery pipeline: Screening and hit evaluation of the MMV Hit Generation Library 1 (HGL1) against asexual blood stage Plasmodium falciparum ,using a nano luciferase reporter read-out” (2022).
